Assay results reported in US20200199241A1 (Chugai, published 2020).

Tests used:
[1] = molecular target: T1, human FcRn (soluble human FcRn complexed with β2-microglobulin) (human, UniProt P61769 in part, limits assumed); assay: SPR, antibody captured by Protein L, human FcRn as analyte, pH 7.0, 25 C
T1 construct: also called hFcRn

mouse FcγRI = molecular target: T2, mouse FcγRI (mouse, UniProt P26151 25-297); assay: SPR, antibody captured by Protein L, mouse FcγR as analyte, pH 7.4, 25 C
T2 construct: bought; also called mFcgRI; mFcgR 1
T2 sequence (looked up): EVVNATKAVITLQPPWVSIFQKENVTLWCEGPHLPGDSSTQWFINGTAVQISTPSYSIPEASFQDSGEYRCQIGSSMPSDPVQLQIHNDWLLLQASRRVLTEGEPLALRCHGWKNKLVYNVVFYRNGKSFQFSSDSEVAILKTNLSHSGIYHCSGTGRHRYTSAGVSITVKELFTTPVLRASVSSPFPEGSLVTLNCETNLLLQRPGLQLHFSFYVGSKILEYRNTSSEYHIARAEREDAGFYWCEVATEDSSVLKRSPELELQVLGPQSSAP

mouse FcγRIIb = molecular target: T3, mouse FcγRIIb (mouse, UniProt P08101 30-207, limits assumed); assay: as above
T3 construct: bought; also called mFcgRIIb; mFcgR IIb
T3 sequence (looked up): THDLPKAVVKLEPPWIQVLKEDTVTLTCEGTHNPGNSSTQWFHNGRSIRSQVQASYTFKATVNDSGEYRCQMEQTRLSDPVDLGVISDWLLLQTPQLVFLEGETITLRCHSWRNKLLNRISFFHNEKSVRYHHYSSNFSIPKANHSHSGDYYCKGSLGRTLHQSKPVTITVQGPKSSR

mouse FcγRIII = molecular target: T4, mouse FcγRIII (mouse, UniProt P08508 31-215); assay: as above
T4 construct: bought; also called mFcgRIII; mFcgR III
T4 sequence (looked up): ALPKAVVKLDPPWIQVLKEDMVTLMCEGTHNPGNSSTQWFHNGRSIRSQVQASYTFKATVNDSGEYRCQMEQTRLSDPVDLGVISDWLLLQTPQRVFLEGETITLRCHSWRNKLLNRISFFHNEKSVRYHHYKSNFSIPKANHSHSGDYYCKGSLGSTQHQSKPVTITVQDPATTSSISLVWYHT

mouse FcγRIV = molecular target: T5, mouse FcγRIV (mouse, UniProt A0A0B4J1G0 21-203); assay: as above
T5 construct: bought; also called mFcgRIV; mFcgR IV; the vendor's purification tag not given
T5 sequence: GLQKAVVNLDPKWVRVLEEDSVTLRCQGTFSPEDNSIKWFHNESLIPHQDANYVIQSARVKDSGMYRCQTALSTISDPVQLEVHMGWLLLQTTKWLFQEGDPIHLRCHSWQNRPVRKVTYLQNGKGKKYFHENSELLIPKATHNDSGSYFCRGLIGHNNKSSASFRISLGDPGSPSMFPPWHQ

B1: antibody with VH3-IgG1-F760 heavy chain and L(WT)-CK light chain (antibody)
heavy: QVQLQESGPGLVKPSETLSLTCAVSGHSISHDHAWSWVRQPPGEGLEWIGFISYSGITNYNPSLQGRVTISRDNSKNTLYLQMNSLRAEDTAVYYCARSLARTTAMDYWGEGTLVTVSS[here human IgG1 constant region with L235R S239K (EU numbers) without letters]
light: DIQMTQSPSSLSASVGDRVTITCRASQDISSYLNWYQQKPGKAPKLLIYYTSRLHSGVPSRFSGSGSGTDFTFTISSLQPEDIATYYCQQGNTLPYTFGQGTKVEIKRTVAAPSVFIFPPSDEQLKSGTASVVCLLNNFYPREAKVQWKVDNALQSGNSQESVTEQDSKDSTYSLSSTLTLSKADYEKHKVYACEVTHQGLSSPVTKSFNRGEC
notes: L235R/S239K; copies: 2 + 2
binding result [1]: no binding | BINDING AMOUNT (RU) (mouse FcγRI): -1.9 RU | BINDING AMOUNT (RU) (mouse FcγRIIb): -2.2 RU | BINDING AMOUNT (RU) (mouse FcγRIII): -15.1 RU | BINDING AMOUNT (RU) (mouse FcγRIV): 8.1 RU
